# “And” between values parts separate entries of the source, which are not always exact repeats. Equal values may be shown once. Hit rate of the full screen: of about 48,000 compounds, about 1,200 (2.5%) were called active. Not shown: some 2% with an inconclusive outcome.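 The calls were made as follows: active = activation of at least 60% and not above a set upper limit (about 1 call in 100 departs from these limits); inconclusive = activation of 40% to 60%, or above that upper limit; inactive = activation under 40%.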 The list shows a part of the results.
# Target: Probable G-protein coupled receptor 32 (Homo sapiens) (UniProt O75388)
# Experiment: qHTS for Agonists of Human Resolvin D1 Receptor DRV1; also: 0% is about no effect
# Settings: CHO-K1 GPR32 beta-arrestin PathHunter luminescence, 90 min; at 76.9 µM; active compounds read high; zero percent set by DMSO-only wells
# Method in brief: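 PathHunter beta-arrestin recruitment in CHO-K1 cells stably expressing ProLink-tagged GPR32. Cells were exposed to compound for 90 min at 37 C, then chemiluminescence was read after 1 h detection at ambient temperature; DMSO served as basal control.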
# Chain of UniProt O75388 (O75388 whole entry, looked up): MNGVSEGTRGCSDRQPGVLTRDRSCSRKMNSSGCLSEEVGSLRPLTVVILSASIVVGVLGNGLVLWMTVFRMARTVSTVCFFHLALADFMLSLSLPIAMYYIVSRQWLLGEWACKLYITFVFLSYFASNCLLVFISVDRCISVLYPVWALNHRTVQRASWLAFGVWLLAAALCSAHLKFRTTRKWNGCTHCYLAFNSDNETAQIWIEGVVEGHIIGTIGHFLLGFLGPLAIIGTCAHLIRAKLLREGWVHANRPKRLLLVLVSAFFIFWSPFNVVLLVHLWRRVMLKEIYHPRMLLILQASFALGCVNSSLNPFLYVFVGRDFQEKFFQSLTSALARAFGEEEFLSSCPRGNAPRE
row,SMILES,activation
1,Cc1c(C(=O)OCc2ccccc2)[nH]c2c1C(=O)CC(c1ccc(N(C)C)cc1)C2 (centres undefined),inactive: -0.0625%
2,Cc1ccc(S(=O)(=O)C(CNC(=O)COc2ccccc2)c2cccs2)cc1 (centres undefined),inactive: 31.1%
3,O=c1oc2cc(O)ccc2cc1-c1nc(-c2ccc(Cl)c(Cl)c2)cs1,inactive: 22.3%
4,COc1cccc(-n2c(SCC(=O)c3ccccc3)nc3c([nH]c4ccccc43)c2=O)c1,inactive: -18.3%
5,COC(=O)C1=C(C)NC(=O)NC1c1cn(-c2ccccc2)nc1-c1ccc(OC)c(Br)c1 (centres undefined),inactive: 17.8%
6,Cc1cccc(C)c1Nc1c(-c2ccc(N3CCOCC3)cc2)nc2ncccn12,inactive: -10.2%
7,COc1ccc(N2CCN(C(=O)CN3CCSc4ccccc43)CC2)cc1,inactive: -3.11%
8,CCn1c(=O)cc(OCC(=O)N2CCN(c3ccc(C(C)=O)cc3)CC2)c2ccccc21,inactive: 13.8%
9,CN(C(=O)c1c[nH]c2ccc(S(=O)(=O)Nc3cccc(C(F)(F)F)c3)cc2c1=O)C1CCCCC1,inactive: -13.2%
10,CC(=O)Nc1ccc(NC(=O)CN2C(=O)CC(c3ccco3)Sc3ccccc32)cc1 (centres undefined),inactive: -17.2%
11,Cc1ccc(-c2cc(C(F)(F)F)n3nc(-c4cccc(Br)c4)cc3n2)cc1,inactive: 8.72%
12,CNC(=O)c1c(NC(=O)c2cc(=O)c3cc(C)c(C)cc3o2)sc2c1CCCC2,inactive: -0.446%
13,COc1ccccc1CNC(=O)Cn1c(-c2ccc(F)cc2)cc(C(C)=O)c1C,inactive: -13.9%
14,Cc1ccc(CSCCC(=O)N2CCN(c3ccc(F)cc3)CC2)cc1,inactive: -22.1%
15,O=C(Cn1nc(Cc2ccncc2)c2ccccc2c1=O)Nc1cccc(C(F)(F)F)c1,inactive: -19%
16,COc1ccc(Cl)cc1NC(=O)Nc1c[nH]c(=O)[nH]c1=O,inactive: 25.8%
17,Cc1c(Cl)cccc1N1CCn2c1nc1c2c(=O)n(CC(=O)O)c(=O)n1C,inactive: -2.44%
18,COc1ccccc1NC(=O)c1nn(C)c2c1CS(=O)(=O)c1ccccc1-2,inactive: -8.62%
19,CN(C)S(=O)(=O)c1ccc(C(=O)NCCSc2c(-c3ccc(Br)cc3)[nH]c3ccccc23)cc1,inactive: -19.9%
20,CCCCNC(=O)CC1Nc2cc(C)c(C)cc2NC1=O (centres undefined),inactive: -9.17%
21,Cc1ccc(NC(=O)C2CCCN(c3ncnc4onc(C)c34)C2)c(Cl)c1 (centres undefined),inactive: 24%

row,SMILES,activation
1,O=C(CCSCc1ccc(Cl)cc1)NCCc1ccccc1,inactive: -26%
2,O=C(NCCc1ccc(Cl)cc1)c1nnc(Cc2ccc(F)cc2)o1,inactive: 25.1%
3,O=C(O)C1CCCN(CCC=C(c2ccccc2)c2ccccc2)C1 (centres undefined),inactive: -6.71%
4,CCCCc1ccc(Nc2cc(C)nc(-n3nc(C)cc3C)n2)cc1,inactive: -18.6%
5,O=C(Nc1ccc(-c2nc3ccccc3o2)c(O)c1)c1cc(Cl)ccc1Cl,inactive: -1.51%
6,COc1cc(OC)cc(C(=O)Nc2ccc3nc4c(c(Nc5ccc(OC)c(OC)c5)c3c2)CCCC4)c1,active: 85.5%
7,CCN(C(=O)CCS(=O)(=O)c1ccc2c(c1)CCN2C(C)=O)c1cccc(C(F)(F)F)c1,inactive: -2.67%
8,O=C(NCC(c1cccnc1)N1CCc2ccccc2C1)C(=O)Nc1ccccc1F (centres undefined),inactive: -17.4%
9,CC1Cc2cc(S(=O)(=O)CCC(=O)Nc3ccc(F)cc3)ccc2N1C(=O)C1CC1 (centres undefined),inactive: 1.41%
10,CSc1ccc(CNC(=O)Cn2c(-c3cccs3)cc3cc(F)ccc32)cc1,inactive: -19.4%
11,O=C(/C=C\c1ccc2c(c1)OCO2)NC1CC(=O)N(c2ccccc2)C1 (centres undefined),inactive: 10.2%
12,CC(=O)O[C@]1(C(C)=O)CC[C@H]2[C@@H]3C=C(Cl)C4=CC(=O)[C@@H]5C[C@@H]5[C@]4(C)[C@H]3CC[C@@]21C,inactive: 15.1% and inactive: -14.6%
13,CCN1CCc2c(sc(NC(=O)c3ccc(S(=O)(=O)N(C)C4CCCCC4)cc3)c2C(N)=O)C1,inactive: -15.9%
14,COc1cn(CC(=O)Nc2c(C)cc(C)cc2C)c(CN2CCCCC2)cc1=O,inactive: -4.81%
15,CCOCCc1nn2c(=O)cc(COC(=O)COc3ccc(C)c(C)c3)nc2s1,inactive: -9.69%
16,CC(C)c1ccc(NC(=O)c2ccc3oc(=O)c(S(=O)(=O)c4ccc(F)cc4)cc3c2)cc1,inactive: -12.9%
17,CCc1ccc(NC(=O)CC2C(=O)NCCN2C(=O)c2ccccc2OC)cc1 (centres undefined),inactive: -5.67%
18,Cc1nc(SCc2cc(=O)c3cccc(F)c3[nH]2)n[nH]1,inactive: 2.03%
19,CCOc1ccc(S(=O)(=O)NCCc2csc3nc(-c4ccc(OC)c(OC)c4)nn23)cc1,inactive: -8.01%
20,COc1ccccc1CNCc1ccc(C(=O)O)s1,inactive: -21.4%
21,Clc1cccc(CSc2nc(NCCc3ccccc3)c3ccccc3n2)c1,inactive: -26.3%

row,SMILES,activation
1,CC(C)c1ccc(NC(=O)CSc2ncnc3c2sc2ccccc23)cc1,inactive: -4.27%
2,COc1ccc(NC(=O)Cn2ncc3c(C)n(Cc4cccc(Cl)c4)c(C)c3c2=O)cc1,inactive: -6.31%
3,COc1ccc(C(=O)Nc2ccc(N3CCN(c4ccccc4)CC3)c(C(=O)O)c2)cc1,inactive: 4.19%
4,COc1c(C)cccc1C(=O)Nc1ccc(Cl)c(-c2nc3cc(C)ccc3o2)c1,inactive: -4.44%
5,CCOc1ccc(CCNC(=O)CSc2nc3ccccc3nc2Cc2ccc(C)cc2)cc1OCC,inactive: 35.3%
6,CC(C)CCOc1ccc(Cn2c(=O)sc3ccccc32)cc1,inactive: -19%
7,COc1ccc(-c2nc3sc(CCNC(=O)Cc4ccc(Cl)cc4)c(C)n3n2)cc1,inactive: -14%
8,CCN(CC)c1ccc(NC(=O)CN(C)S(=O)(=O)c2cccc3nsnc23)c(C)c1,inactive: 0.768%
9,CCOc1ccc(C2C(=O)N(C3CCCCCC3)CC(=O)N2Cc2ccc(F)cc2)cc1OC (centres undefined),inactive: -30.5%
10,CCN(CC)c1ccc(C(=O)NCc2ccc3c(c2)CCN3C(=O)c2cccc(C)c2)cc1,inactive: -7.4%
11,CC(=O)OC[C@H]1O[C@@H](n2ncc(=O)[nH]c2=O)[C@H](OC(C)=O)[C@@H]1OC(C)=O,inactive: 0.313%
12,CCOc1ccccc1NC(=O)Nc1ccc2nc(N3CCN(C)CC3)cc(C)c2c1,inactive: -3.69%
13,CCOc1ccc(CCNC(=O)C(CC(C)C)N2Cc3ccccc3C2=O)cc1OCC (centres undefined),inactive: -9.72%
14,COc1ccc(NC(=O)C(NC(=O)Cc2cccs2)c2ccc(OC)cc2)cc1 (centres undefined),inactive: 0.0022%
15,Cc1cc(Br)cc(C)c1NC(=O)c1cnc2ccccn2c1=O,inactive: -14.4%
16,COc1cccc(NS(=O)(=O)c2ccc3[nH]c4c(c3c2)CCCCCC4)c1,inactive: 3.07%
17,Cn1c2c(c(=O)n(C)c1=O)C(c1cccc(O)c1)CC(=O)N2 (centres undefined),inactive: -9.97%
18,CCOC(=O)c1ccc(NC(=O)CC2Nc3cccc4cccc(c34)NC2=O)cc1 (centres undefined),inactive: -0.453%
19,Cc1noc(C)c1S(=O)(=O)Nc1ccc(C(=O)Nc2ccc(C(C)C)cc2)cc1,active: 91%
20,COc1ccc(-c2onc(C)c2C)cc1S(=O)(=O)N1CCc2ccccc21,inactive: -6.94%
21,CCc1ccc(CN(C(=O)c2ccc(OC)cc2)C2CCS(=O)(=O)C2)cc1 (centres undefined),inactive: -3.25%

row,SMILES,activation
1,COc1cc2c(cc1NC(=O)COc1ccc(Br)c(C)c1)oc1ccccc12,inactive: 1.03%
2,CCC12CN3CC(CC)(CN(C1)C3c1cccc(OC)c1O)C2=O (centres undefined),inactive: -12.9%
3,CCOC(=O)c1c(NC(=O)CCCOc2ccc(C)cc2)sc2c1CCC(C)C2 (centres undefined),inactive: -3.44%
4,COc1ccc(C2=CC(c3ccccc3Cl)n3nc(-c4ccc(C)cc4)nc3N2)cc1 (centres undefined),inactive: -13.9%
5,CCc1ccc(-n2c(SCc3nc(-c4cc(OC)ccc4OC)no3)nnc2-c2ccccc2)cc1,inactive: -20.2%
6,CCOC(=O)Cn1c(=O)n(-c2ccccc2OC)c2nc(-c3ccccc3)nc(C(N)=O)c21,inactive: -1.23%
7,CCc1nnc(SCC(=O)Nc2ccc(Cl)cc2F)c2cc3occc3n12,inactive: -18.6%
8,CCc1ccc(CNC(=O)c2ccc(CS(=O)c3ccc(Br)cc3)o2)cc1 (centres undefined),inactive: -20.6%
9,Cc1cccc(N2CCN(C(=O)c3cn(C)c4ccc(S(=O)(=O)N(C)C)cc4c3=O)CC2C)c1 (centres undefined),inactive: 0.0261%
10,Cc1ccc2nc(N(Cc3cccnc3)C(=O)c3ccco3)sc2c1,inactive: -14.7%
11,COc1ccc(-c2c(C)c3ccc(O)c(CN4CCCCC4)c3oc2=O)cc1OC,inactive: -5.42%
12,CCn1c(C(=O)NCc2ccc(C)cc2)cc2sc(Cl)cc21,inactive: -22.6%
13,COc1ccc(-c2nc3ccccc3s2)cc1NC(=O)c1ccc(C#N)cc1F,inactive: 6.75%
14,CCCCCn1c(=O)[nH]c2cc(C(=O)N3CCN(c4cccc(Cl)c4)CC3)ccc2c1=O,inactive: 4.44%
15,CN(c1ccccc1)S(=O)(=O)c1nnc(NC(=O)c2ccco2)s1,active: 92.8%
16,Cc1ccccc1NC(=O)c1cc2sccc2n1Cc1ccc(F)cc1,inactive: -7.88%
17,COc1ccc(OC)c(CNC(=O)c2cc(S(=O)(=O)N3CCC(C)CC3)cn2C)c1,inactive: 5.8%
18,COc1cc2oc(=O)c(CC(=O)NCCc3ccccc3)c(C)c2cc1Cl,inactive: -4.87%
19,CCOC(=O)CCn1c(=O)c2cccn2c2cccnc21,inactive: -12.4%
20,CSc1nn(Cc2ccccc2C)c(NC(C)=O)c1S(=O)(=O)c1ccc(C)cc1,inactive: -9.11%
21,COc1ccc(NC(=O)CCc2nc3c(C)nn(-c4ccc(C)cc4)c3n(C)c2=O)c(OC)c1,inactive: 2.22%

# From PubChem BioAssay AID1346428 (National Center for Advancing Translational Sciences (NCATS), 2018)
